Results as given in ChEMBL document CHEMBL1157539, “Thousands of chemical starting points for antimalarial lead identification” (Nature, 2010).
In all, about 13,000 compounds were measured (“IFI”: median about 4, highest 2% from about 17 on). This is one part of the list.

Test: GSK_TCMDC: Inhibition Frequency Index (IFI). The number of non-kinase HTS assays where a compound showed > 50 % inhibition, expressed as a percentage of the number of such assays in which the compound was tested (-0 is zero)
Assay type: functional

Row | Compound | IFI
1 | CN1CCN(CCCN(Cc2ccc(-c3cccc(CNCc4ccc5c(c4)OCO5)c3)cc2)C(=O)NCCc2ccccc2)CC1 | 7.69%
2 | CC(=O)Nc1ccc(C(=O)Nc2cccc(-c3ccc(-c4nc5cc(C(F)(F)F)ccc5[nH]4)cc3)c2)cn1 | 3.7%
3 | COc1c(CNCCCCCCNCc2c(OC)c(OC)c3ccccc3c2OC)c(OC)c2ccccc2c1OC | 21.3%
4 | CN(C)c1ccc(-c2cscc2C(=O)NC2CCCN(Cc3cccnc3)C2)cc1 (configuration not stated) | 0%
5 | O=C1CCCN1CCCNCc1ccc(-c2ccc(-c3nc4cc(F)ccc4[nH]3)s2)cc1 | 3.88%
6 | Cc1c(CCc2cccc(F)c2F)[nH]c2ccccc2c1=O | 3.01%
7 | CC1(C)CN(CCC2CCC(NC(=O)/C=C/c3ccc(F)cc3F)CC2)Cc2ccc(C#N)cc21 (configuration not stated) | 0.76%
8 | CC1c2cccc(O)c2CCN1CCc1ccc(Cl)c(Cl)c1 (configuration not stated) | 6.47%
9 | Nc1nc(N)c2cc(S(=O)(=O)c3ccc4ccccc4c3)ccc2n1 | 3.65%
10 | COc1ccccc1CNc1ccnc(NCCc2cccc(C(F)(F)F)c2)n1 | 16%
11 | CCC1(C)N=C(N)N=C(N)N1c1ccccc1 (configuration not stated) | -0%
12 | COc1cccc(Cn2ccc3c4c(N)nc(N)nc4ccc32)c1 | 5.74%
13 | CCc1ccc(Cc2cnc3nc(N)nc(N)c3c2C)cc1 | 3.25%
14 | Nc1ncc(Cc2cc(Cl)c(N)c3ncccc23)c(N)n1 | 2.9%
15 | COc1ccc(NC(=O)[C@H](CC(C)C)Nc2cc(C)nc(Nc3ccccc3)n2)cc1 | 4.76%
16 | CCN1CCN(C(=O)NC(C(=O)N(C)Cc2ccc(-c3ccc(C(F)(F)F)cc3)cc2)c2cccs2)C(=O)C1=O (configuration not stated) | 2.7%
17 | CC(C)(C)c1ccc(Cn2c(=N)n(CC(=O)c3ccc(-c4ccccc4)cc3)c3ccccc32)cc1 | 11.8%
18 | CCCOc1ccc(OCCCON2C(=N)N=C(N)NC2(C)C)cc1 | 6.47%
19 | Fc1ccc2[nH]c(-c3cccc(-c4ccc(CNCCc5ccncc5)cc4)c3)nc2c1 | 9.71%
20 | Cc1cccc2nc(-c3ccc(-c4ccc(C(=O)NCCN5CCCC5)cc4)s3)[nH]c12 | 4.55%
21 | CC1(C(=O)Nc2ccc([N+](=O)[O-])cc2O)CC2c3ccccc3C1c1ccccc12 (configuration not stated) | 17.4%
22 | CC(C)(C)C1=CC(=NNC(=O)c2ccncc2)C=C(C(C)(C)C)C1=O | 11.8%
23 | NC(=O)C1CCN(Cc2ccc(-c3cccc(-c4nc5cc(F)ccc5[nH]4)c3)cc2)CC1 | 0%

Row | Compound | IFI
24 | CCN(CC)/C(=N\CCCCCC/N=C(\NC(=N)c1ccc(Cl)cc1)N(CC)CC)NC(=N)c1ccc(Cl)cc1 | 12.2%
25 | O=C(NCC1CCN(CC2CCCCC2)C1)c1cc(-c2cccc(C(F)(F)F)c2)cs1 (configuration not stated) | 10%
26 | Cc1cc(N)c2cc(NC(=O)c3cc(C(F)(F)F)cc(C(F)(F)F)c3)ccc2n1 | 9.46%
27 | Oc1ccc2c(CNC3CCCCC3)c(O)ccc2c1CNC1CCCCC1 | 9.52%
28 | CN(C)c1cc(NN=Cc2cc(Cl)ccc2O)nc(N(C)C)n1 | 2.96%
29 | N#Cc1ccc(N(CCOC(=O)c2ccc(Br)s2)Cc2ccccc2C(F)(F)F)cc1C(F)(F)F | 0.7%
30 | NC1=NC(c2ccccc2)(c2ccccc2)C(=O)N1Cc1ccccc1Br | 4.65%
31 | O=C(/C=C/c1ccc(Cl)c(Cl)c1)NCCCCCN1CCN(C(=O)Nc2ccc(C(F)(F)F)cc2)CC1 | 5.96%
32 | Cc1cccc(Cn2c(Cc3ccccc3)nnc2Sc2ccc([N+](=O)[O-])c(C#N)c2)c1 | 4.14%
33 | O=C(Nc1ccc(Cl)cc1)c1ccc(CN2CCCN(Cc3ccccc3)CC2)cc1 | 11%
34 | O=C(Nc1ccc2c(c1)CCN2C1CCN(Cc2cccc3cc[nH]c23)C1)c1ccco1 (configuration not stated) | -0%
35 | Cc1csc(-c2nc(NCc3cccnc3)ncc2-c2ccsc2)n1 | 4.44%
36 | O=C(Nc1ccc(-c2nc3ccccc3[nH]2)cc1)C1CCN(Cc2ccc(F)cc2)CC1 | 2.38%
37 | COc1ccc(Br)cc1/C=C/C(=O)Nc1ccc2c(c1)CCCN(C)C2 | 3.39%
38 | CC(C)N1CCC(N(Cc2ccc(-c3ccc(Cl)cc3)cc2)C(=O)Cn2c(CCc3cccc(F)c3F)cc(=O)c3ccccc32)CC1 | 6.99%
39 | CCCCCN1CCCC(NS(=O)(=O)c2ccc(C(=O)Nc3cccc(C(F)(F)F)c3)cc2)C1 (configuration not stated) | 4.12%
40 | CC1CCCC(NC(=O)CCOc2ccccc2)C1 (configuration not stated) | 0.75%
41 | CN1CCN(Cc2ccc(-c3cc4nccc(Nc5ccc(Oc6ccccc6)cc5)c4cc3Cl)o2)CC1 | 2.27%
42 | Cn1cncc1C(=O)Nc1cccc(-c2ccc(-c3nc4cc(C(F)(F)F)ccc4[nH]3)cc2)c1 | 4.42%
43 | c1cc(CN2CCc3ccccc3CC2)cc(-c2c[nH]c3nc(NC4CCCC4)ncc23)c1 | -0%
44 | Cc1cc(C(=O)Nc2ccc3c(c2)CCN3C2CCN(Cc3csc4ccccc34)C2)no1 (configuration not stated) | -0%
45 | CCc1cc2c(Sc3nc4ccccc4[nH]3)ncnc2s1 | 3.33%
46 | Cc1onc(-c2c(Cl)cccc2Cl)c1C(=O)NC1=NC(C)(C)ON1c1ccccc1 | 2.63%

Row | Compound | IFI
47 | COCCNCc1cccc(-c2cc3nccc(Nc4ccc(Oc5ccccc5)cc4)c3cc2Cl)c1 | 6.87%
48 | Cc1cnccc1/C=C/c1cccc(OCCCN2CCc3ccc(S(C)(=O)=O)cc3CC2)c1 | 0%
49 | CC(C)C[C@H]1c2[nH]c3ccc(Cl)cc3c2CCN1C(=O)CCc1ccccc1 | 4.46%
50 | O=C(Nc1ccc(OC2CCN(Cc3ccc(F)cc3)CC2)c(Cl)c1)c1cccs1 | 9.52%
51 | NCc1ccc(CNCc2ccc(-c3ccc(-c4nc5cc(F)ccc5[nH]4)cc3)cc2)cc1 | 10.7%
52 | CC1CCCN(S(=O)(=O)c2ccc(NC(=O)c3cc(-c4ccccc4O)n[nH]3)cc2)C1 (configuration not stated) | 12.7%
53 | O=C(Cn1c(SCc2cccc(F)c2F)cc(=O)c2ccccc21)N(CCn1ccnc1)Cc1ccc(-c2ccc(C(F)(F)F)cc2)cc1 | 4.35%
54 | CCCNCc1ccc(-c2ccc(CN(Cc3cccs3)C(=O)C3CCN(C)CC3)cc2)nc1 | 3.42%
55 | COC(=O)c1cccc(CNCc2ccc(-c3ccc(-c4nc5ccccc5[nH]4)s3)cc2)c1 | 7.69%
56 | N=c1sc2ccccc2n1CC(O)c1ccc(Cl)c(Cl)c1 (configuration not stated) | -0%
57 | COc1ccc(C)c(Nc2ccnc(Nc3cccc(-c4nc5ccccc5[nH]4)c3)n2)c1 | 14.8%
58 | Cc1ccc(Sc2ccc(NC(=O)CN3CCN(C(=O)c4ccco4)CC3)cc2)cc1C | 5.66%
59 | CC1CCN(CCNC(=O)c2ccc3c(=O)n(Cc4ccc(Cl)cc4)c(=S)[nH]c3c2)CC1 | 8.09%
60 | Cc1cc(C(=O)NC2CCN(CC3(c4ccccc4)CCCCC3)CC2)on1 | 6.38%
61 | COc1cc(Nc2ccnc3ccc(C(F)(F)F)cc23)ccc1OCCCc1ccccc1 | 5.15%
62 | O=C(Nc1ccc(OC2CCN(Cc3ccsc3)C2)c(Cl)c1)c1ccco1 (configuration not stated) | 0%
63 | c1cncc(CN2CCN(Cc3ccc(-c4ccc(-c5nc6ccccc6[nH]5)s4)cc3)CC2)c1 | 4.96%
64 | O=S(=O)(NCCN1CCCC1)c1ccc(-c2ccc(CNCc3ccc(F)cc3)cc2)cc1 | 11.8%
65 | COc1ccc(Nc2nccc(N3CCC(NC(=O)C(C)c4ccc(Cl)cc4)C3)n2)cc1 (configuration not stated) | 10.4%
66 | O=C(Nc1ccc(CC(=O)N2CCc3cc(Cl)c(N4CCN(C/C=C/c5ccccc5)CC4)cc32)cc1)Nc1cccc([N+](=O)[O-])c1 | -0%
67 | CCN(CC)C(=O)c1cnc(-c2ccccc2)nc1Oc1cccc(Cl)c1 | 2.33%
68 | CCc1ccc(NC(=O)c2ccc(CN3CCCN(Cc4ccc(C)s4)CC3)cc2)cc1 | 8.59%
69 | CC1(C)N=C(N)N=C(N)N1OCC1COc2ccccc2O1 (configuration not stated) | 1.46%

Row | Compound | IFI
70 | O=C(Nc1cccc(-c2cccc(-c3nc4ccccc4[nH]3)c2)c1)Nc1ccc2c(c1)OCO2 | 4.95%
71 | Clc1ccc(CNc2ccnc(NCCc3coc4ccccc34)n2)c(Cl)c1 | 8%
72 | CCCn1c(Sc2ccc(C#N)c([N+](=O)[O-])c2)nnc1-c1ccc(N(C)C)cc1 | 3.57%
73 | CCCN(Cc1nnc(-c2ccco2)o1)C(=O)C1CCN(c2ncc(C(F)(F)F)cc2Cl)CC1 | 4.49%
74 | O=C(Cc1cccc2ccccc12)NC1CCN(c2ccnc3cc(Cl)ccc23)C1 (configuration not stated) | 1.54%
75 | O=C(NCc1cccc(Br)c1)c1ccc(CNC2CCN(Cc3ccccc3)CC2)cc1 | 2.96%
76 | COc1cccc(C2CCN(CCN3CCC(NC(=O)c4ccc(-c5ccc(C#N)cc5)cc4)CC3)CC2)c1 | 3.64%
77 | CC(C)Cn1cc2c(ccc3nc(N)nc(N)c32)n1 | 1.56%
78 | CCNc1cc(C)nc(Nc2ccccc2)n1 | 2.94%
79 | O=C(Nc1ccc(Cl)cc1)Nc1ccc(-c2csc(-c3nc4ccccc4[nH]3)c2)cc1 | 3.57%
80 | CC(C)c1sc(N2CCCCC2)nc1C(=O)Nc1ccc(F)cc1C(F)(F)F | 0%
81 | CCCCCCCc1c(C)nc2cc(OC)ccc2c1O | -0%
82 | COc1ccc2ncc(C#N)c(CCN3CCC(NCc4ccc5c(n4)NC(=O)CS5)CC3)c2n1 | 3.73%
83 | Cc1cccc(OCC2CCN(c3ncc(C(=O)NC4CC4)cc3Cl)CC2)c1 | -0%
84 | CN1CCC[C@H]1COc1ccc(CN2CC[C@H](NC(=O)c3ccc(Cl)c(Cl)c3)C2)cc1Cl | 6.67%
85 | Cn1cccc1C(=O)NCC(CCNc1cc(=O)c2ccccc2[nH]1)NCc1cc(Br)cc(Br)c1 (configuration not stated) | 7.25%
86 | C=CCc1cc(OC)ccc1OCCCOc1c(C)nc(N)nc1N | 3.7%
87 | c1ccc(COc2ccc(COc3ccc(Cn4ccnc4)cc3)cc2)cc1 | 2.91%
88 | COc1ccc2nccc([C@@H](O)CN3CCC(NC(=O)C(c4ccsc4)N4CCN(c5ccccc5OC)CC4)CC3)c2c1 (some centres not stated) | -0%
89 | Cc1ccc(Nc2cc(C)nn2-c2nc(C)cc(O)n2)cc1 | 12.3%
90 | CS(=O)(=O)c1cccc(-c2cnc(N)c3cc(-c4ccc(F)cc4)ccc23)c1 | 5.38%
91 | Cc1cc(-c2cccc3c(NC(=O)N4CCc5cc6nccc(N7CCN8CCC[C@H]8C7)c6cc54)cccc23)cc(C)n1 | 8.03%
92 | N#Cc1ccc2c(c1)CN(CCC1CCC(NC(=O)c3cc4cnccc4[nH]3)CC1)CC2 (configuration not stated) | 1.53%
